assay: soluble on expression in E. coli; label from the status in PepcDB or PDB records

| Sequence | soluble on expression in E. coli |
| --- | --- |
| GPHMYEAPPATLEAIHPKGLRVSVPDEGFSLFAFHGKLNEEMEGLEAGHWSRDITKPKNGRWIFRDRNAALKIGDKIYFWTFVIKDGLGYRQDNGEWTVEGFVDEA | soluble |
| MAEKVAVLLGGTSAEREVSLLSGQAVLAGLKEAGIDAYGVDTKDFPVTQLKEQGFDKVFIALHGRGGEDGTLQGVLEFLQLPYTGSGVMASALTMDKLRTKLVWQALGLPISPYVALNRQQFETLSPEELVACVAKLGLPLIVKPSHEGSSVGMSKVDHASELQKALVEAFQHDSDVLIEKWLSGPEFTVAILGDEVLPSIRIQPPGVFYDYDAKYLSDKTQYFCPSGLSDESEQQLAALALQAYHALDCSGWGRVDVMQDRDGHFYLLEVNTSPGMTSHSLVPMAARQYGLSFSQLVARILMLAD | not soluble |
| MGHHHHHHGGHMSLARIHARRRGKSGSKRIYRDSPPEWVDMSPEEVEKKVLELYNEGYEPSMIGMILRDRYGIPSVKQVTGKKIQKILKEHGVEIKYPEDLKALIKKALKLRAHLEVHRKDKHNRRGLQLIEAKIWRLSSYYKEKGVLPADWKYNPDRLKIEISKEGGS | soluble |
| MGIDINHKHDRVARRTAPKSENPYLRLLSKLYAFLARRTGEKFNAIVLKRLRMSRRNRQPLSLAKLARAVQKAGNENKTVVTLSTVTDDARLYTVPKISVAALHVTEGARARILAAGGEIITLDQLALKSPKGENTVFLQGPRSAREAEKHFGPAPGVPHSHTKPYVRSKGRKFERARGRRASRAYKN | not soluble |
| MKVNPFVSSDSGKSRKAHFNAPSHERRRIMSAPLTKELRTKHGIRAIPIRTDDEVVVMRGRHKGNTGRVLRCYRKKFVIHIDKITREKANGSTVHIGIHPSKVRFV | not soluble |
| MNTQQLAKLRSIVPEMRRVRHIHFVGIGGAGMGGIAEVLANEGYQISGSDLAPNPVTQQLTSLGATIFFNHRPENVRDASVVVVSSAISADNPEIVAAHEARIPVIRRAEMLAELMRFRHGIAIAGTHGKTTTTAMVSSIYAEAGLDPTFVNGGLVKAAGVHARLGHSRYLIAEADESDASFLHLQPMVAIVTNIEADHMDTYHGDFENLKQTFINFLHNLPFYGRAVMCVDDPVIRELLPRVGRQTTTYGFSEDADVRVEDYQQIGPQGHFTLLRQGMPDLHVTLNAPGRHNALNAAAAVAVATEEGIADDAILRALESFQGTGRRFDFLGEFPLEPVNGKAGTAMLVDDYGHHPTEVDATIKAARAGWPDKNLVMLFQPHRYTRTRDLYDDFANVLTQVDALLMLDVYPAGEAPIPGADSRSLCRTIRNRGKIDPILVSDPAQVATMLAPVLTGNDLILVQGAGNVGKIARYLSEIKLKPQIQEEEQHG | not soluble |
| MVIGVIFYNTKGNFLRVKCLDCGNQQVVFDRAASYVQCIICGKTLVEPTGGKSKIKAQILEVLD | not soluble |
